Sequences with one replicate were seen in a single cluster, so their values are uncertain.
Test system: ATP
Experiment: switch fluorescence ratio, 500 uM ATP over buffer (Cy3 cluster intensity, sum of 5 cycles each) (fold (ratio)); higher = stronger signal-on switching upon ATP binding; sequences stand for … in TCGTCGGCAGCGTCAGATGTGTATAAGAGACAGTTTTTTTTTTTTTTTTTTTTTTTTT…TC
Details: aptamer strand: ATP DNA aptamer (quencher-CACCTGGGGGAGTATTGCGGAGGAAGG + anchor), 100 nM annealed; ATP concentration: 500 uM; one replicate
Procedure, shortened: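 The quencher-labelled ATP aptamer, at 100 nM, was annealed to Cy3-labelled switching-strand clusters on a modified Illumina MiSeq flow-cell. The clusters were imaged in selection buffer, then after 15 min with 500 uM ATP at 22 °C, and this buffer/ATP cycle ran five times with NaOH stripping and re-annealing between runs. Per-cluster fluorescence ratios, summed target-cycle over summed buffer-cycle Cy3 intensity, were averaged per switch-domain sequence. Clusters outside 100-1000 RFU were excluded.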
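Further: ATP exposure 15 min at 22 °C before imaging.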

Row | Sequence | switch fluorescence ratio
1 | TTCTTTAGTC | 0.991
2 | TTTTCCGGAC | 1.15
3 | GAGCTGAGGT | 1.03
4 | AATTAGGGAC | 1.46
5 | CTTCAGTCTA | 1.07
6 | GGGTACAGGC | 0.974
7 | TAACCATTGC | 1.08
8 | CGGAAGGTGG | 1.01
9 | TATTAGACCC | 1.06
10 | GTGACGGATA | 1.01
11 | AATGTTGGGC | 0.949
12 | GGAGCCATTA | 1.08
13 | ACAATTAACA | 1.02
14 | TTTGGCTA | 0.948
15 | AGTCCTGAGG | 0.969
16 | CTTTTCACG | 0.985
17 | AGACATCGA | 0.98
18 | TTGGCAGCGG | 0.977
19 | GGGGAAGTTG | 0.996
20 | CCTTGAAAAA | 0.96
21 | GGCGTCTAGC | 0.998
22 | TATCTTCGTG | 0.984
23 | CGCCCAACTA | 1.15

Row | Sequence | switch fluorescence ratio
24 | TGTATTTAGC | 1.01
25 | ACATGATTAG | 1.01
26 | AGAAAGCGTA | 1.04
27 | GATCAGCCGG | 0.992
28 | GAGCCGATAC | 4.7
29 | AAATCCGAGT | 1.07
30 | TAAAAAACAG | 0.993
31 | AACTCCGGGG | 0.995
32 | CAAAACCTTC | 2.61
33 | ATCTAATTTT | 1.01
34 | AGCATGTAGG | 0.993
35 | GAAGAAGTC | 0.938
36 | GGTCATCTGC | 1.09
37 | ACGTGTTCCA | 0.974
38 | AACTTAAGGA | 1
39 | ACGTTTTCAT | 1.02
40 | ACGCCCGCAT | 1.61
41 | AGATTCCTT | 1.06
42 | TAAATACCAC | 1.05
43 | TATCCCTCTG | 1.01
44 | ATTTGCAAGG | 1
45 | ACGATTATTG | 1.02
46 | GAGCTCCAGT | 0.99

Row | Sequence | switch fluorescence ratio
47 | GCGTTGCGGT | 0.976
48 | AGAACCGAGT | 1.02
49 | TTCTCATTTA | 1.03
50 | CTGTGTCGGC | 1.01
51 | GAATACTGAA | 1.03
52 | GGACTGGGGC | 1.01
53 | TAGATATGAT | 0.958
54 | CGAACCCAAG | 1.1
55 | CGATCAATCA | 0.993
56 | GCACGTTGTA | 1.04
57 | GAGTTTCAGC | 0.943
58 | TCATTCTGCA | 1.08
59 | GCACAGATTG | 0.965
60 | CTCCAACCGG | 1.08
61 | TTCCGCACG | 1.91
62 | CGTGGCCATT | 1.01
63 | CTATGTTGAC | 0.985
64 | GCTCGAGTAT | 1.01
65 | ATTGCCGCGA | 1.23
66 | TCTTTCGAA | 1.01
67 | AAGTAGGAGA | 1.02
68 | TTGCCTGGCG | 0.975
69 | CCTGCCGGGT | 1.05

Row | Sequence | switch fluorescence ratio
70 | ATCTTGCCAC | 1.05
71 | ACTCCAACG | 1.34
72 | TACTCTCATC | 1.08
73 | GAAATTTCCG | 0.984
74 | TGCGAGATCG | 1.02
75 | TTATCGTGG | 0.988
76 | ATTTAAGGTC | 0.95
77 | CATAGCCATC | 1.25
78 | TGGAAATTAT | 1.09
79 | TTGTAACAAT | 1.02
80 | CAAATGATGG | 1
81 | TCGGGACCTT | 1.04
82 | CAGTGTCTTG | 1.01
83 | GCTATCGGCT | 1.01
84 | CCGATAACTA | 1.01
85 | ATCTGAGTGG | 0.986
86 | CTAGGCCCTG | 0.989
87 | AGTCCGGCGT | 1.02
88 | TCCTTTTGCT | 0.965
89 | AGTGTGGCTC | 1.01
90 | ACATCTCTGC | 1.02
91 | TGACATCCCT | 1.04
92 | ACACTCTACT | 1.32

Row | Sequence | switch fluorescence ratio
93 | TGACACGCTG | 1.1
94 | CTTTGGCATA | 1.15
95 | AACGCTCAGC | 1.04
96 | GGTAGCTAA | 1.3
97 | CAATGAGGAG | 0.97
98 | GGAAAAACAA | 1.03
99 | CTTGAATTAA | 0.996
100 | GCCAGGATGG | 0.964
101 | GGAAGGCTAA | 1.2
102 | TCGTAGGTCT | 1.03
103 | TAACATCAAA | 1.01
104 | TCGTCGGGAT | 1.01
105 | TTCCAAAAT | 1.31
106 | ACAGGTGCCA | 1.67
107 | GGCTAACTCT | 1
108 | TCTAATGAAA | 1.02
109 | TCCGAGCTGG | 2.35
110 | TCCTGGATAG | 1.02
111 | CTATTGATGT | 1.03
112 | AGTGTACTGT | 1.05
113 | GCATAGGCTG | 1.02
114 | TTAATTACTT | 1.05
115 | TCCGATTGAC | 1.7

Row | Sequence | switch fluorescence ratio
116 | AAATGCACGA | 0.953
117 | TTTCTCCTGT | 1.01
118 | GTTGAAGCGT | 0.948
119 | CTGCATCACG | 1.18
120 | ACGGCAGTTG | 1.01
121 | CAAGTCGTGT | 1.01
122 | CACCGCACTT | 2.27
123 | ATCCGGTGCG | 1.03
124 | CATAAACCTA | 1.1
125 | AAAGTCGCCT | 1.02
126 | TGTGATAATA | 1.05
127 | AATCGAATTT | 1.02
128 | GGAGGGTCTT | 0.98
129 | TGTTATGGG | 0.972
130 | AACCTACTAC | 1.33
131 | TAAGTCTTGA | 0.972
132 | CGTTCGCCCG | 0.954
133 | CTCAGGATAA | 1.14
134 | ATAGGGACTT | 0.979
135 | CTCGCCAATT | 1.59
136 | ATAGCTGTGG | 0.968
137 | TTATACCCGG | 1.03
138 | CGGTATAGTG | 0.996

Row | Sequence | switch fluorescence ratio
139 | ACAGGGAAGC | 1.07
140 | AACTGGAGCT | 1.11
141 | ATGGCGATAG | 1.02
142 | GCATGATT | 0.996
143 | CTACGGTTTC | 1.31
144 | CTATGCTAAC | 2.06
145 | CGTTGCCGCC | 1.03
146 | CCTATAAGG | 0.995
147 | GATCTGCTCA | 1.01
148 | TCCAGCATA | 1.89
149 | CAAGGCTTTT | 1
150 | GGCCTCTTTG | 1.11
151 | TCACGTGGGG | 1.03
152 | TGGAAAGGAT | 0.968
153 | CCGGAACAAC | 3.22
154 | TTTACTAAGC | 1.02
155 | TTACAGGCAG | 0.974
156 | TCTGGCCTCC | 1.21
157 | GTACTCGTAC | 1.07

From the supplement of paper PMC10126150
